Measured values: the supplement of paper PMC8285479
Counter-ions that a name gives are not always drawn. ± gives the standard deviation of the averaged measurements. Whole data set: some 1,900 compounds, median “normalised cell viability (NPI; 0 = phenylarsine oxide control, 1 = DMSO control)” near 1, cut for the lowest 2% near 0.039. Some of the results follow.

Tested on: NCI-H1944
Experiment: normalised cell viability (NPI; 0 = phenylarsine oxide control, 1 = DMSO control) (fraction of DMSO control); NCI-H1944 is a non-small cell lung cancer line; higher = more viable cells (less compound toxicity)
Settings: 6 days
[1] = glucocorticoid arm: hydrocortisone 2.75 uM co-treatment, compound 1 µM
[2] = glucocorticoid arm: hydrocortisone 2.75 uM co-treatment, compound 5 µM
[3] = glucocorticoid arm: hydrocortisone 2.75 uM pre-treated 2 days and continued, compound 1 µM
[4] = glucocorticoid arm: hydrocortisone 2.75 uM pre-treated 2 days and continued, compound 5 µM
[5] = glucocorticoid arm: vehicle, compound 1 µM
[6] = glucocorticoid arm: vehicle, compound 5 µM
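Further: CTB read-out in 384-well plates, mean of triplicate wells, normalised per plate against 1 µM phenylarsine oxide and 0.1% DMSO, compounds added 24 h after seeding.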

Row | Structure (SMILES) | normalised cell viability [1] | normalised cell viability [2] | normalised cell viability [3] | normalised cell viability [4] | normalised cell viability [5] | normalised cell viability [6]
1 | NCCCCCCCCCCN [1,10-Diaminodecane] | 0.9903 ± 0.0091 | 0.967 ± 0.025 | 0.9883 ± 0.0076 | 0.962 ± 0.014 | 0.988 ± 0.0061 | 0.986 ± 0.0072
2 | O=C(c1ccc(C(=O)N2CCC(N3CCCC3)CC2)c(Nc2ccccc2)c1)N1CCC(N2CCCC2)CC1 | – | 1.01 | – | 1.02 | – | –
3 | O=Nc1ccc(O)c2ncccc12 | 1.02 ± 0.019 | 0.964 ± 0.047 | 1.01 ± 0.018 | 1.03 ± 0.022 | 0.989 ± 0.022 | 0.243 ± 0.13
4 | OCCN1CCN(CCCN2c3ccccc3Sc3ccc(Cl)cc32)CC1 [Perphenazine] | 0.983 ± 0.015 | 0.917 ± 0.035 | 1.023 ± 0.0058 | 1.05 ± 0.021 | 1.03 ± 0.01 | 1.02 ± 0.029
5 | CNc1nc(Nc2cnn(C3CCN(C4COC4)CC3F)c2Cl)ncc1C(F)(F)F (stereo not given) | 1.02 ± 0.01 | 1.05 ± 0.023 | 1.04 ± 0.01 | 1.05 ± 0.01 | 1.007 ± 0.0058 | 1.007 ± 0.0058
6 | CC(C)(C#N)c1ccc(N2C(=O)OCc3cnc4ccc(-c5cnc6ccccc6c5)cc4c32)cc1 | 0.892 ± 0.021 | 0.929 ± 0.0056 | 0.899 ± 0.02 | 0.867 ± 0.047 | 0.9743 ± 0.0065 | 0.9857 ± 0.0064
7 | CCN(CC)Cc1ccc2cc(COC(=O)Nc3ccc(C(=O)NO)cc3)ccc2c1 [Givinostat (ITF2357)] | 0.726 ± 0.049 | 0.00151 ± 0.0022 | 1 ± 0.018 | 0.0193 ± 0.0045 | 0.139 ± 0.006 | 0.000221 ± 0.0011
8 | O=c1oc(Cl)c(Cl)c2ccccc12 [3,4-Dichloroisocoumarin] | 1 ± 0.0095 | 0.99 ± 0.023 | 1.004 ± 0.0098 | 0.976 ± 0.007 | 1.003 ± 0.0058 | 1.01 ± 0.015
9 | O=C(c1ccc(F)cc1)N1CCCC(c2nc(-c3ccc(F)cc3)no2)C1 (stereo not given) | 1.03 ± 0.015 | 1.023 ± 0.0058 | 1.02 ± 0.011 | 1.013 ± 0.0058 | 1.01 | 1.001 ± 0.0078
10 | CN1CCCC(n2nc(Cc3ccc(Cl)cc3)c3ccccc3c2=O)CC1 (stereo not given) [Azelastine HCl] | 0.984 ± 0.018 | 0.933 ± 0.037 | 1.003 ± 0.0058 | 0.946 ± 0.022 | 0.993 ± 0.007 | 0.965 ± 0.014
11 | CN(C)CCC[C@@]1(c2ccc(F)cc2)OCc2cc(C#N)ccc21 [Escitalopram Oxalate] | 0.947 ± 0.023 | 0.914 ± 0.025 | 0.979 ± 0.0044 | 0.943 ± 0.025 | 0.981 ± 0.0027 | 0.976 ± 0.013
12 | O=S(=O)(c1ccccc1)c1cnc2c(N3CCNCC3)cccc2c1 | 1.02 ± 0.015 | 1.03 ± 0.015 | 1.023 ± 0.0058 | 1.017 ± 0.0058 | 1.007 ± 0.0058 | 1.01 ± 0.015
13 | CC(C)C[C@H](NC(=O)[C@H](CCc1ccccc1)NC(=O)CN1CCOCC1)C(=O)N[C@@H](Cc1ccccc1)C(=O)N[C@@H](CC(C)C)C(=O)[C@@]1(C)CO1 [Carfilzomib] | 0.0119 ± 0.0019 | 0.198 ± 0.017 | 0.652 ± 0.035 | 0.986 ± 0.013 | 0.00203 ± 0.0017 | 0.0026 ± 0.00057
14 | CC(C)C[C@H](NC(=O)[C@H](CCc1ccccc1)NC(=O)CN1CCOCC1)C(=O)N[C@@H](Cc1ccccc1)C(=O)N[C@@H](CC(C)C)C(=O)[C@@]1(C)CO1 [Carfilzomib (PR-171)] | 0.0181 ± 0.0047 | 0.000755 ± 0.00097 | 0.777 ± 0.051 | 0.12 ± 0.025 | 0.0054 ± 0.0013 | -0.000926 ± 0.0006
